Source: PubChem BioAssay (NCATS)
Values joined by “and” are separate entries in the source; they are usually repeats but may differ in a detail not shown here. Equal entries are not always repeated. Inconclusive results, whose numbers are uncertain, are shown with a selection of clear calls. Potencies beside an inconclusive call are fits to weak or partial responses and may not hold up. Active and inactive are the calls of the source. Calls come from the whole dose curve; as a rule, active = well fitted cell-killing curve with a large enough effect; inconclusive = small, poorly fitted or top-dose-only effect, or effect the other way; inactive = flat fitted curve, though single readings scatter. Non-standard residues stand in square brackets, D forms with d. Residues, ends and D or L forms follow the SMILES beside them. *: point of attachment. Dolaproine = CO[C@@H]([C@@H]1CCCN1)[C@@H](C)C(=O)O; Dil = CC[C@H](C)[C@H](NC)[C@@H](CC(=O)O)OC; Doe = c1ccc(C[C@H](N*)c2nccs2)cc1; Aib = CC(C)(N)C(=O)O

Test system: PA-1
Experiment: Primary qHTS to identify gynecologic anti-cancer compounds using libraries of approved drugs and bioactive compounds (AID 1345084); note: nearly all actives have a fitted effect of over 55% in size
Conditions: Gynecologic cancer cell panel viability, ATPlite luminescence, 48 h; series mostly up to 57.5 µM; activity change, negative = cytotoxicity: at the top concentration
In short: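 In this quantitative HTS, cell killing is estimated from loss of ATP-dependent luciferase light. Cells see five compound concentrations over a 48 h exposure.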
% is set by controls: 0 for no effect and ±100 for the full control effect; potency is the fitted concentration of half-maximal effect; tags give direction and shape of the fitted curve.

| Compound | Potency | activity change, negative = cytotoxicity |
| --- | --- | --- |
| C=C1C[C@@H]2[C@H](CC[C@]3(C)C(=O)CC[C@@H]23)[C@@]2(C)C=CC(=O)C=C12 | inconclusive: 39.8 µM [cytotoxic, single point] | – |
| CC[C@H]1CN2CC[C@H]1C[C@@H]2[C@@H](O)c1ccnc2ccc(OC)cc12 | inconclusive: 3.98 µM [rising, single point] | – |
| C[C@]12CC[C@H](O[C@@H]3O[C@H](CO)[C@@H](O)[C@H](O)[C@H]3O[C@@H]3O[C@H](CO)[C@@H](O)[C@H](O)[C@H]3O)CC1=CC[C@@H]1[C@@H]2CC[C@]2(C)[C@@H](C3=CC(=O)OC3)CC[C@]12O | inconclusive: 2.51 µM [cytotoxic, partial curve, poor fit] | – |
| CC[C@H](C)[C@@H]([C@@H](CC(=O)N1CCC[C@H]1[C@H](OC)[C@@H](C)C(=O)N[C@@H](Cc1ccccc1)c1nccs1)OC)N(C)C(=O)[C@@H](NC(=O)C(C)(C)N)C(C)C (H-[Aib]V[Dil][Dolaproine]-Doe) | inconclusive: 0.0355 µM | – |
| CC[C@@]1(O)C(=O)OCc2c1cc1n(c2=O)Cc2cc3c(OC)cccc3nc2-1 | active: 0.0891 µM | – |
| C[C@@H]1C[C@@H](O)[C@]2(O)O[C@@H]3C[C@@]4(C=O)C(CC[C@@H]5C4CC[C@]4(C)[C@@](O)(C6=CC(=O)OC6)CC[C@]54O)C[C@H]3OC2O1 (some centres not stated) | inconclusive: 3.16 µM [cytotoxic, full curve, poor fit] | – |
| N#CC(C#N)=Cc1ccc(O)c(O)c1 | inconclusive: 39.8 µM [cytotoxic, single point] | – |
| C=C1C(=O)CC2OC2(C)CC2OC(=O)C(=C)C2C(O)C1OC(=O)/C(C)=C\C (configuration not stated) | inconclusive: 31.6 µM [cytotoxic, single point] | – |
| C[C@@H]1CCC/C=C/[C@H]2C[C@@H](O)C[C@@H]2[C@@H](O)/C=C/C(=O)O1 | active: 0.447 µM | – |
| C/C=C(\C)C(=O)O[C@H]1CC2C(=C1C)[C@H]1OC(=O)[C@](C)(O)[C@]1(O)[C@H](OC(=O)CCC)C[C@@]2(C)OC(C)=O (some centres not stated) | active: 5.01 µM | – |
| CCCCCCCCc1ccc(O)cc1 | inconclusive: 39.8 µM [cytotoxic, single point] | – |
| COC1CC(O[C@H]2CC[C@@]3(C)C(CCC4C3CC[C@]3(C)[C@@H](C5=CC(=O)OC5)CC[C@]43O)C2)OC(C)C1O (some centres not stated) | inconclusive: 0.0891 µM [cytotoxic, full curve, poor fit] | – |
| Cc1ccc([N+](=O)[O-])[c]2c1[O][Hg]2 | active: 2.82 µM | – |
| COC1C(O)C(C)OC(OC2C(CO)O[C@@H](O[C@@H]3CC4CCC5C(CC[C@]6(C)[C@@H](C7=CC(=O)OC7)CC[C@]56O)[C@@]4(C)[C@H](O)C3)C(O)C2O)C1O (some centres not stated) | active: 2.82 µM | – |
| C[C@H]1O[C@@H](O[C@H]2[C@@H](O)C[C@H](O[C@H]3[C@@H](O)C[C@H](O[C@H]4CC[C@@]5(C)[C@H](CC[C@@H]6[C@@H]5CC[C@]5(C)[C@@H](C7=CC(=O)OC7)CC[C@]65O)C4)O[C@@H]3C)O[C@@H]2C)C[C@H](O)[C@@H]1O | active: 282 nM and active: 126 nM | – |
| COC1C(O)C(OC2CCC3(C=O)C(CCC4C3CCC3(C)C(C5=CC(=O)OC5)CCC43O)C2)OC(C)C1OC1OC(CO)C(O)C(O)C1O (configuration not stated) | inconclusive: 1 µM [cytotoxic, full curve, poor fit] | – |
| COc1cc(CC(C)N)cc(OC)c1OC (configuration not stated) | active: 2.51 µM | – |
| C/C=C(/C)C(=O)O[C@H]1[C@@H]2[C@H](C)C(=O)O[C@@H]2C[C@@H](C)[C@@H]2C=CC(=O)[C@]21C | inconclusive: 28.2 µM [cytotoxic, single point] | – |
| CC1=CC(=O)[C@@H](O)[C@@]2(C)C1C[C@H]1OC(=O)[C@H](O)[C@@]3(O)[C@@H](C)[C@@H](O)[C@H](O)C2[C@@]13C (some centres not stated) | inconclusive: 1.78 µM [cytotoxic, full curve, poor fit] | – |

| Compound | Potency | activity change, negative = cytotoxicity |
| --- | --- | --- |
| C[C@@H]1Cc2c(Cl)cc(C(=O)N[C@@H](Cc3ccccc3)C(=O)O)c(O)c2C(=O)O1 | inconclusive: 12.6 µM [cytotoxic, single point] | – |
| CN(C(=O)CN1C(=O)COc2cc(Cl)c(Cl)cc21)[C@@H](CN1CCCC1)c1ccc(-c2cccc(C(N)=O)c2)cc1 | inconclusive: 35.5 µM [cytotoxic, single point] | – |
| CO[C@@H]1[C@H](O)[C@@H](O[C@@H]2C[C@H]3CC[C@@H]4C(CC[C@]5(C)[C@@H](C6=CC(=O)OC6)CC[C@]45O)[C@@]3(C)[C@H](O)C2)O[C@H](C)[C@@H]1O (some centres not stated) | active: 0.199 µM | – |
| COc1cccc2c1C(=O)c1c(O)c3c(c(O)c1C2=O)C[C@@](O)(C(=O)CO)CC3OC1CC(N2CCOC(OC)C2)C(O)C(C)O1 (some centres not stated) | inconclusive: 31.6 µM | – |
| C[C@]12CCC(=O)C=C1CC[C@@H]1[C@H]3CC[C@](C)(O)[C@@]3(C)CC[C@@H]12 | inconclusive: 39.8 µM [cytotoxic, single point] | – |
| CC[C@H](C)[C@H](NC(=O)[C@H]1CCCCN1C)C(=O)N(COC(=O)CC(C)C)[C@H](C[C@@H](OC(C)=O)c1nc(C(=O)N[C@@H](Cc2ccc(O)cc2)C[C@H](C)C(=O)O)cs1)C(C)C | inconclusive: 0.0033 µM [cytotoxic, full curve, poor fit] | – |
| CCOC(=O)c1ncn2c1CN(C)C(=O)c1c(I)cccc1-2 | – | inactive: -2.23% |
| CC1(C)C(C=C(Cl)Cl)C1C(=O)OC(C#N)c1cccc(Oc2ccccc2)c1 (configuration not stated) | – | inactive: -3.5% |
| CC[n+]1c(-c2ccccc2)c2cc(N)ccc2c2ccc(N)cc21 | active: 1.26 µM | – |
| COC1C(O)C(C)OC(OC2C(CO)O[C@@H](O[C@@H]3CC4CCC5C(CC[C@]6(C)[C@@H](C7=CC(=O)OC7)CC[C@]56O)[C@@]4(C)[C@H](OC(C)=O)C3)C(O)C2O)C1O (some centres not stated) | inconclusive: 7.94 µM [cytotoxic, single point] | – |
| O=[N+]([O-])c1ccc([As](=O)(O)O)cc1 | inconclusive: 8.91 µM [rising, partial curve, poor fit] | – |
| COC1CC(O[C@H]2CC[C@]3(C)C4CC[C@]5(C)[C@@H](C6=CC(=O)OC6)[C@@H](OC(C)=O)C[C@]5(O)C4CC[C@@H]3C2)OC(C)C1O[C@@H]1O[C@H](CO)[C@@H](O)[C@H](O)[C@H]1O (some centres not stated) | active: 1.12 µM | – |
| CCOCCOC(C)=O | inconclusive: 39.8 µM [rising, partial curve, poor fit] | – |
| CC1=C[C@H]2O[C@@H]3[C@H](O)[C@@H](O)[C@](C)([C@@]2(CO)C[C@@H]1O)[C@]31CO1 | active: 3.98 µM | – |
| CC[C@@H]1C[C@H]2CC[C@H](O2)[C@H](C)C(=O)O[C@@H](C)C[C@@H]2CC[C@@H](O2)[C@@H](C)C(=O)O[C@H](CC)C[C@H]2CC[C@H](O2)[C@H](C)C(=O)O[C@@H](C)C[C@@H]2CC[C@@H](O2)[C@@H](C)C(=O)O1 | active: 0.355 µM | – |
| CO[C@H]1[C@H](O)[C@H](O[C@H]2CC[C@]3(C)C4CC[C@]5(C)[C@H](C6=CC(=O)OC6)CC[C@]5(O)C4CC[C@@H]3C2)O[C@@H](C)[C@@H]1O (some centres not stated) | active: 0.0891 µM | – |
| O=C1CN=C(c2cccc(Br)c2)c2oc3ccccc3c2N1 | inconclusive: 25.1 µM [cytotoxic, single point] | – |
| C=C(C)[C@@]12O[C@@H]1[C@@]1(C)C(=CC2=O)CC[C@@H](OC(C)=O)[C@@H]1C | inconclusive: 3.16 µM [cytotoxic, full curve] | – |
